Measurements from the supplement of paper PMC12632987.
Over roughly 2,300 sequences, “median log2 fold change of GCK-ALFA target abundance (FLAG IP / Myc IP barcode read proportion)” has its median near 0.095; the lowest 2% begin near -0.47. The list shows a part of the results.

B1: LC3A_3_1869 (protein)
chain: MEEIKEEILKLLKERGRSEETIEAAKELLEALEERGYEEAAKTLLEELKELKDLPDELLLDMFLDLLRAVTEEKLNEEETIKKIKEEASIAKNEKEIIEL
B2: LC3A_17_558 (protein)
chain: MEELKKEIEELLKEAEELIKELEKYDKEAAEKLKKILEKAKKYLKEGKLEEALEELEKLADEAADIFDSLEHIDPQLMSILSMEAEGLRIEAELLRDKLE
B3: LC3A_102_148 (protein)
chain: SAEEKVEKLKKEAEKEGEKIAEKYKKKDPEKAKKIKELLLKGIEALAESALDEIRHGFVDLYAEDLAEEKLEELKKLGEEEGVKLLEKYREELKKIVKEA
B4: LC3A_3_1732 (protein)
chain: MEEVLEEARKRLEALGFSPELIEAALATIEALLEKGLEEQVELLLEALERIRDADEEDLLAYLEEIRELVETDKGSREELAEKVREEIRVMENDSEIEEL
B5: LC3A_23_616 (protein)
chain: MYKVEIIVDIIVPKEEAEKVEKDLLETINKVLEKNKSKIKEYKIEVEKEELEDGTVLLTIKVTIIYDGNKEEAEELANELVSAIDKTAPDAVISAEVSKI
B6: LC3A_28_1261 (protein)
chain: NKLEENLKKALEEAKKAVERGEEALIEIEIPAGITEEEVEKVIKTLEEIAELTASLKSVTVILDVEKGVSQEHIDKLADAAEELEKKYPNLTVIIALEEE
B7: LC3A_6_2065 (protein)
chain: KKAEFVLDILFPEERKEEGKEKAEKVFKEAKEELEKFMKSLGKKVIEAKLEYSEDGLLITITIVVEATPESIKKASEIIDKIEEELKPLASASLISEEIL
B8: LC3A_127_199 (protein)
chain: EKKKILEEAEKLAEEAIKEVDKIEEKGEEAREKAIKLLEELKKLLKKIPSLKEAEEDAEEAIKLLKELENLSEAEKEEAIEHIEMLLDGILIEIESELLK
B9: LC3A_28_680 (protein)
chain: SELEKEIEKALEEAKKAAEKGEPAVITINVPGDATEEEIEKFIKALKEIAEILKDVKGAAIIVNLSSKLSEEKKNKIIDAAEEINEKYPNVTVIIALEEK
B10: LC3A_3_1814 (protein)
chain: LDERVEETLELLREAGASEETLEAFRAAAEKLKEKGYYKALETFIELMRKNKDLPSELLLAAAKDVLELIETSDLNEEEMTKKIEEIFSTYEHEAEIEEL
B11: LC3A_free_46_2431 (protein)
chain: YIVEIDIDLLHKDKEVLEKAVEEIVEKIKEIAEKYNAEIEIEVEISKDEDGSYFARIKATIKVETEETAKKIADEIIDAVDEIAEKYDVSYIISVDISKE
B12: LC3A_3_1883 (protein)
chain: MEEEIEEALERLREAGASEEALEAFREAAELLRERGYEEALRTLIEEVEKLLDLSDELVLEFLEEVLRVVREEDLNEEELIERIREIARLTRNEGEIIEL
B13: LC3A_free_39_2188 (protein)
chain: SEEEAKKYKEELLKLAEEEGEETKKLAEEIIKIIGEDLKYLKELLELVKELKKEGVDLKKALEEALKLAKELKKKGKSKEEIAKEVLELLRDEINLIPID
B14: LC3A_147_427 (protein)
chain: MVVEVDIIVRGEEAVEEVKRFFQEIAEELRAQGYKVTLEIEVEKLDENTWYIRVTLTVEAETREEAEEAKQYVLDRIDELEERLKDRILGSLISVSYEEK
B15: LC3A_28_772 (protein)
chain: MDIKENAAKAIAEAKAAAAAGEEAVIEIKVPDGATEEDIEIVIKALEEIAEITKDMKSISVVIDVDGGVKQEHLDKLAKAAEEIEEKYPNVTVIIALDEN
B16: LC3A_3_1397 (protein)
chain: MEEIRKEILKELKEMGASEEVLKAAEEVLDALAARGYEKAMETLLEEVKKLKNASDEILLAFFEDVLAFVKTNDASEEEAVEFIKEEARIALNEEEIEEL
B17: LC3A_free_39_2261 (protein)
chain: MEKEREEAIKEAKELAEKTSPEVKKAVTELVELLKDNVELLKKLTELLKKAIEKGPEVVAVFGEFAKEAVERIKAGEPKEKAVKELLKLAENAIEIEEID
B18: LC3A_28_813 (protein)
chain: SEKEKTIEEIKKQAEEAKESKDMKLINVKISSTFTVEEAEEIMEVVEEEVKELSKLGKVAVVVDADEPISQEVLDVIAERGEEIEEKYPNVSVIIALPEE
B19: LC3A_74_2073 (protein)
chain: KLSPEEVEEIVDTIGTLKGALELLKEKGLVTEEEVKKYEEVIEKAKELLKKNGALTEAVEGGIDLEAELVKLKLENKPEEAKKLAEESYKKLEELLKKWE

biological target: MAP1LC3A, Q9H492; test: median log2 fold change of GCK-ALFA target abundance (FLAG IP / Myc IP barcode read proportion) (log2 ratio); each designed protein is fused to an ALFA-tag nanobody in HEK293 cells to bring the named protein to FLAG-tagged glucokinase (GCK); Myc marks an untargeted standard; higher = target protein stabilised (more abundant); conditions: target protein: 3xFLAG-MCP-GCK-ALFA reporter; HEK293 landing pad (RPLP)
How it was run: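 An ALFA-nanobody-fused binder library was recombined into HEK293 landing-pad cells and induced with 2 μg mL^−1 doxycycline. Cells were transfected with a plasmid expressing a FLAG-tagged target and a Myc-tagged standard. After 48 h, lysates underwent anti-FLAG and anti-Myc immunoprecipitation, and circular RNA barcodes were reverse transcribed, amplified and sequenced. Target abundance is the per-binder median log2 ratio of FLAG to Myc barcode read proportions. Barcodes needed ≥10^−7 proportion in both replicates, binders ≥3 barcodes per replicate, and a 10^−6 pseudocount was added; the two replicates were pooled.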

Row | Binder | median log2 fold change
1 | B1 | -0.0496
2 | B2 | -0.179
3 | B3 | 0.25
4 | B4 | 0.215
5 | B5 | -0.672
6 | B6 | 0.27
7 | B7 | 0.268
8 | B8 | -0.0513
9 | B9 | 0.0856
10 | B10 | 0.215
11 | B11 | 0.0337
12 | B12 | 0.278
13 | B13 | 0.231
14 | B14 | -0.106
15 | B15 | 0.202
16 | B16 | 0.243
17 | B17 | 0.408
18 | B18 | -0.181
19 | B19 | 0.328
